# Data taken from the supplement of paper PMC11417369.
# ± gives the standard deviation of the averaged measurements. The list shows a part of the results.
# Test system: PfAP2-LT AP2 domain (GST-tagged)
# Assay: gcPBM binding intensity (ln(normalized median fluorescence intensity)); higher = stronger DNA binding
# Procedure, shortened: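 An Agilent 4 × 180k array carrying primer-extended double-stranded 36-bp intergenic genomic probes and negative controls received GST-tagged P. falciparum DNA-binding domains expressed in E. coli, about 25 μg on average, for 1 h. The binding buffer contained 1× PBS, 1% milk, 0.2 mg/ml BSA, 0.5% salmon testes DNA and 0.03% Triton X-100. Binding intensity is the top Masliner-normalised natural-log median intensity across replicate spots of either probe orientation, read after Alexa488 anti-GST antibody staining and a 488 nm scan.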
row,Sequence,gcPBM binding intensity (ln)
1,TTCTAACTCTAACAAGTGCAATATATATACATAATA,8.46 ± 0.39
2,AAATTTGGCAAACACACACACACACCCACACCCACA [CACACA_site8095],10.4 ± 0.19
3,GAAAATAAAAAAAATAAAAAAAATAAAAAAAATTAT [XGTACX_negctrl_site443],8.48 ± 0.55
4,TAAATATCTAAAGACTGTACAATTAAATATAAACAT [XGTACX_site1450],8.76 ± 0.4
5,TTTTGTAACCTATGCACGCACACAAGAAAAAAACAA [CACACA_site3776],8.89 ± 0.33
6,TATATTATATATATGTGTACATATAAATGTAACAAA [XGTACX_site5025],8.6 ± 0.47
7,ATAGAATACATATATGAACACACAGAGTTTTAAAAA [CACACA_site8879],9.01 ± 0.56
8,AATACATATAAAAGTACACACACACCCATATATATA [CACACA_site8220],9.97 ± 0.13
9,TTTTTTTTTTGATGTTGTACATATATACTATATAAT [XGTACX_site1332],8.7 ± 0.51
10,TTTTAATGATATATGAGTACACATTGTTTTTTATAA [XGTACX_site1072],8.47 ± 0.36
11,ATATAATGATGGAAAAGAAAAGAAATAAAAAAAAAA [CACACA_negctrl_site1170],8.56 ± 0.57
12,AAATAATAAAACAACACACAAATAGTTAAAATAGAA [CACACA_site5007],9.12 ± 0.52
13,TTGACATATAAGATATGTACTAATACACACACATAT [XGTACX_site1904],9.46 ± 0.42
14,ACATTCTATATATACACACATACATAATAAAGAAAG [CACACA_site2771],9.05 ± 0.4
15,CATATATAGATATATACACACATACATACATACATA [CACACA_site7748],9.3 ± 0.27
16,TGCATATGCATTATTTGTACATATGTAGATAATTAT [XGTACX_site6930],8.85 ± 0.35
17,AATAAAATAAATATATGTACATATATATAACCATTA [XGTACX_site5549],8.88 ± 0.44
18,AAAAATTACAAATACAAACACACAAATGTTTTTCAT [CACACA_site3551],8.8 ± 0.42
19,AGAGAAAGAAGGGAGAAAAAATAAAATAAAATAAAA [GTGCAC_negctrl_site299],8.69 ± 0.67
20,AATAAAAAAAAACTCATGCACACAATATTATGAAAA [CACACA_site664],8.94 ± 0.5
21,TATATATATATATATATTTTAAATGATATAAATGGT [TGCATGCA_negctrl_site152],8.96 ± 0.3
22,AATTAATTAAATTAATGTACACATATATTTGTATTC [XGTACX_site2341],8.78 ± 0.44

row,Sequence,gcPBM binding intensity (ln)
1,CCACATTAAAAAAAAACACACATATATTATATATAT [CACACA_site1155],8.89 ± 0.42
2,AATACATGAATATGTAGTACAGAAAAAAAAAATATA [XGTACX_site1945],8.95 ± 0.52
3,GTTACAGAGAATGTTGTGCACATATCAATAATATAT [GTGCAC_site9671],9.03 ± 0.4
4,AAAATGACATAATGGGGAATAGACATATACATAAAT [CACACA_negctrl_site1669],9.05 ± 0.45
5,ATAATAATAAAAATTATACATAAGTATATGCACATA [XGTACX_negctrl_site583],8.69 ± 0.37
6,TATAAACCATAATTAACACACAAAATAAGTTACATA [CACACA_site3227],8.94 ± 0.45
7,ACATATGGTATTTAAACACACAAAAAAGAAAGAAAA [CACACA_site991],8.95 ± 0.47
8,TTTTGCTTTTTTTTTCTTTTTTGTTTTATATATATT [CACACA_negctrl_site103],8.74 ± 0.45
9,AAATGGTAAGAAAATAAATAAAGTTCTACCACATAA [CACACA_negctrl_site1542],8.92 ± 0.51
10,TAGAAAGAATATAATTGTACAAATGTTGATAGATAA [XGTACX_site7259],8.8 ± 0.52
11,ATTTTTCTTTTATTAACACACATATAAATAAATACA [CACACA_site2876],8.6 ± 0.4
12,ATATATATATATATATATATATATGTTTGATTTTTT [XGTACX_negctrl_site98],10.05 ± 0.028
13,AATAAAAATAGGAATACGCACACGATGATTAATTTA [CACACA_site1836],9 ± 0.51
14,AATTAACCCTAATTTTGTACATATTCCTTTTCTCAT [XGTACX_site46],9.01 ± 0.43
15,GTTACTATGATTAATGCATGCAAATACCAAAAAAAA [TGCATGCA_site590],8.95 ± 0.33
16,TATACCACACGATATACACACTTGTAGACATCTTTT [CACACA_site6232],9.04 ± 0.33
17,TTATATTCTAGAGACACATGCGATTTTTTATTTTAT [TGCATGCA_site649],8.9 ± 0.3
18,TGGAATAATCCGCGTACACACATATATATATTAAGA [CACACA_site4253],9.1 ± 0.4
19,AAAATAAAAAAAAACACACACATACAAGCATATATA [CACACA_site1585],9.63 ± 0.26
20,AATTAATGGCTAAAGGTGCACAATATATATATTACA,9.11 ± 0.52
21,AAAAAAAAATTTAAGGGTACATACAAATATATATAT [XGTACX_site5078],8.73 ± 0.43
22,TCCCTTCATCTTTTATGTACTAAAAAATTGAATAAT [XGTACX_site2172],8.39 ± 0.3
